The values below come from the supplement of paper PMC8047034.

Structures can show the parent of a compound that is named as a salt. This is one part of the list. Many values rest on one well or one pass, so single values are uncertain.

For experiment [1], the system named is OVCAR4. The experiment is described as follows: log2 surviving fraction (library drug vs vehicle, or drug + carboplatin vs carboplatin alone; relative to plate median); ovarian cancer lines: OVCAR4 is platinum-sensitive and Ov4Carbo platinum-resistant; higher = more cell survival. The following applies: library drug concentration 10 µM, 7 days.
Experiment [2] deals with Ov4Carbo. The experiment is described as above. The following applies: library drug concentration 10 µM, 7 days.

As to `CN1C(C(=O)Nc2ccccn2)=C(O)c2ccccc2S1(=O)=O` [Piroxicam (Feldene)], the log2 surviving fraction in experiment [1] (carboplatin co-treatment 0 µM) is 0.729; in experiment [1] (carboplatin co-treatment 5 µM) it was 0.00714; in experiment [2] (carboplatin co-treatment 0 µM), -0.456; in experiment [2] (carboplatin co-treatment 5 µM), -0.0159.

Consider `CN1C(C(=O)Nc2ccccn2)=C(O)c2sc(Cl)cc2S1(=O)=O` [Lornoxicam (Xefo)], for which the log2 surviving fraction in experiment [1] (carboplatin co-treatment 0 µM) is 0.651; in experiment [1] (carboplatin co-treatment 5 µM) it was -0.254; in experiment [2] (carboplatin co-treatment 0 µM), 0.783; in experiment [2] (carboplatin co-treatment 5 µM), -0.366.

In the case of `C[C@]12CC[C@@H]3c4ccc(O)cc4CC[C@H]3[C@@H]1C[C@@H](O)[C@@H]2O` [Estriol], the log2 surviving fraction in experiment [1] (carboplatin co-treatment 0 µM) is 0.554; in experiment [1] (carboplatin co-treatment 5 µM), 0.884; in experiment [2] (carboplatin co-treatment 0 µM) it was 0.287; in experiment [2] (carboplatin co-treatment 5 µM), 0.428.

Regarding `COc1cc2c(cc1OC)[C@@]13CCN4CC5=CCO[C@H]6CC(=O)N2[C@H]1[C@H]6[C@H]5C[C@H]43` [Brucine], the log2 surviving fraction in experiment [1] (carboplatin co-treatment 0 µM) is 0.0846; in experiment [1] (carboplatin co-treatment 5 µM) it was -8.05; in experiment [2] (carboplatin co-treatment 0 µM) it was 0.216; in experiment [2] (carboplatin co-treatment 5 µM), 1.4.

Take `CCN(CC)CCOCCOC(=O)C(CC)(CC)c1ccccc1` [Oxeladin Citrate]: the log2 surviving fraction in experiment [1] (carboplatin co-treatment 0 µM) is -0.321; in experiment [1] (carboplatin co-treatment 5 µM), -1.04; in experiment [2] (carboplatin co-treatment 0 µM) it was -0.504; in experiment [2] (carboplatin co-treatment 5 µM), -2.9.

`OCCN(CCO)c1nc(N2CCCCC2)c2nc(N(CCO)CCO)nc(N3CCCCC3)c2n1` [Dipyridamole (Persantine)]: the log2 surviving fraction in experiment [1] (carboplatin co-treatment 0 µM) is -0.599; in experiment [1] (carboplatin co-treatment 5 µM), -0.41; in experiment [2] (carboplatin co-treatment 0 µM), -0.861; in experiment [2] (carboplatin co-treatment 5 µM), -0.378.

Consider `CCC[C@@H]1C[C@@H](C(=O)N[C@@H]([C@H]2O[C@H](SC)[C@H](O)[C@@H](O)[C@H]2O)[C@H](C)Cl)N(C)C1` [Clindamycin], for which the log2 surviving fraction in experiment [1] (carboplatin co-treatment 0 µM) was 0.988; in experiment [1] (carboplatin co-treatment 5 µM), 0.685; in experiment [2] (carboplatin co-treatment 0 µM), -0.0168; in experiment [2] (carboplatin co-treatment 5 µM), 0.103.

Take `C=C1c2c(Cl)ccc(O)c2C(=O)C2=C(O)[C@]3(O)C(=O)C(C(N)=O)=C(O)[C@@H](N(C)C)[C@@H]3[C@@H](O)[C@H]12.O=C(O)c1cc(S(=O)(=O)O)ccc1O` [Meclocycline Sulfosalicylate]: the log2 surviving fraction in experiment [1] (carboplatin co-treatment 0 µM) is -0.943; in experiment [1] (carboplatin co-treatment 5 µM), -0.676; in experiment [2] (carboplatin co-treatment 0 µM), -1.77; in experiment [2] (carboplatin co-treatment 5 µM) it was -1.27.

Turning to `C#C[C@]1(O)CC[C@H]2[C@@H]3CCc4cc(OC)ccc4[C@H]3CC[C@@]21C` [Mestranol], the log2 surviving fraction in experiment [1] (carboplatin co-treatment 0 µM) was 0.174; in experiment [1] (carboplatin co-treatment 5 µM), -1.27; in experiment [2] (carboplatin co-treatment 0 µM), -0.256; in experiment [2] (carboplatin co-treatment 5 µM) it was -0.628.

Consider `CN1CCCCC1CCN1c2ccccc2Sc2ccc([S+](C)[O-])cc21` (stereo not given) [Mesoridazine Besylate], for which the log2 surviving fraction is -0.471 in experiment [1] (carboplatin co-treatment 0 µM), -0.979 in experiment [1] (carboplatin co-treatment 5 µM), -1.46 in experiment [2] (carboplatin co-treatment 0 µM) and -1.16 in experiment [2] (carboplatin co-treatment 5 µM).

`CS(=O)(=O)Nc1ccc([N+](=O)[O-])cc1Oc1ccccc1` [Nimesulide]: the log2 surviving fraction in experiment [1] (carboplatin co-treatment 0 µM) is -0.107; in experiment [1] (carboplatin co-treatment 5 µM), 0.316; in experiment [2] (carboplatin co-treatment 0 µM) it was -1.28; in experiment [2] (carboplatin co-treatment 5 µM) it was 0.299.

Take `Cc1c(N(C)C)c(=O)n(-c2ccccc2)n1C` [Amidopyrine]: the log2 surviving fraction in experiment [1] (carboplatin co-treatment 0 µM) was -0.399; in experiment [1] (carboplatin co-treatment 5 µM), -0.663; in experiment [2] (carboplatin co-treatment 0 µM), 0.349; in experiment [2] (carboplatin co-treatment 5 µM) it was 0.335.

Regarding `CC(=O)Oc1ccc(C(c2ccc(OC(C)=O)cc2)c2ccccn2)cc1` [Bisacodyl], the log2 surviving fraction in experiment [1] (carboplatin co-treatment 0 µM) is -2.85; in experiment [1] (carboplatin co-treatment 5 µM) it was -3.04; in experiment [2] (carboplatin co-treatment 0 µM) it was -1.08; in experiment [2] (carboplatin co-treatment 5 µM), -0.675.

Turning to `CC[N+]1(C)CCCC(OC(=O)C(O)(c2ccccc2)c2ccccc2)C1` (stereo not given) [Pipenzolate Bromide], the log2 surviving fraction is 0.257 in experiment [1] (carboplatin co-treatment 0 µM), -0.453 in experiment [1] (carboplatin co-treatment 5 µM), 0.78 in experiment [2] (carboplatin co-treatment 0 µM) and 0.197 in experiment [2] (carboplatin co-treatment 5 µM).

For `CCOC(=O)c1ncn2c1CN(C)C(=O)c1cc(F)ccc1-2` [Flumazenil], the log2 surviving fraction was 1.06 in experiment [1] (carboplatin co-treatment 0 µM), 0.512 in experiment [1] (carboplatin co-treatment 5 µM), 0.104 in experiment [2] (carboplatin co-treatment 0 µM) and -0.423 in experiment [2] (carboplatin co-treatment 5 µM).

On to `O=c1c(-c2ccc(O)cc2)coc2cc(O)cc(O)c12` [Genistein], for which the log2 surviving fraction in experiment [1] (carboplatin co-treatment 0 µM) was 0.915; in experiment [1] (carboplatin co-treatment 5 µM), -0.913; in experiment [2] (carboplatin co-treatment 0 µM) it was -0.221; in experiment [2] (carboplatin co-treatment 5 µM), -0.171.

For the molecule `CN(C)CCc1c[nH]c2ccc(CS(=O)(=O)N3CCCC3)cc12` [Almotriptan malate (Axert)], the log2 surviving fraction is -0.135 in experiment [1] (carboplatin co-treatment 0 µM), 0.256 in experiment [1] (carboplatin co-treatment 5 µM), -0.134 in experiment [2] (carboplatin co-treatment 0 µM) and 0.604 in experiment [2] (carboplatin co-treatment 5 µM).

For `CN(CCOc1ccc(NS(C)(=O)=O)cc1)CCc1ccc(NS(C)(=O)=O)cc1` [Dofetilide (Tikosyn)], the log2 surviving fraction in experiment [1] (carboplatin co-treatment 0 µM) is 0.974; in experiment [1] (carboplatin co-treatment 5 µM), -0.786; in experiment [2] (carboplatin co-treatment 0 µM) it was 0.431; in experiment [2] (carboplatin co-treatment 5 µM) it was 0.17.

As to `NC(=O)c1ncn([C@@H]2O[C@H](CO)[C@@H](O)[C@H]2O)c1O` [Mizoribine (Bredinin)], the log2 surviving fraction in experiment [1] (carboplatin co-treatment 0 µM) is -2.06; in experiment [1] (carboplatin co-treatment 5 µM) it was 1.22; in experiment [2] (carboplatin co-treatment 0 µM), 0.638; in experiment [2] (carboplatin co-treatment 5 µM), 0.206.

For `CC1=C(C(=O)OC(C)C)C(c2cccc([N+](=O)[O-])c2)C(C(=O)OC2CN(C(c3ccccc3)c3ccccc3)C2)=C(N)N1` (stereo not given) [Azelnidipine], the log2 surviving fraction is 0.745 in experiment [1] (carboplatin co-treatment 0 µM), 0.0647 in experiment [1] (carboplatin co-treatment 5 µM), 1.06 in experiment [2] (carboplatin co-treatment 0 µM) and -0.515 in experiment [2] (carboplatin co-treatment 5 µM).

With `O=C(NC[C@H]1CN(c2ccc(N3CCOCC3=O)cc2)C(=O)O1)c1ccc(Cl)s1` [Rivaroxaban (Xarelto)], the log2 surviving fraction was 0.723 in experiment [1] (carboplatin co-treatment 0 µM), 0.47 in experiment [1] (carboplatin co-treatment 5 µM), 0.249 in experiment [2] (carboplatin co-treatment 0 µM) and 0.409 in experiment [2] (carboplatin co-treatment 5 µM).

Regarding `Cc1ncc([N+](=O)[O-])n1CC(O)CCl` (stereo not given) [Ornidazole], the log2 surviving fraction in experiment [1] (carboplatin co-treatment 0 µM) was -0.355; in experiment [1] (carboplatin co-treatment 5 µM), 0.0371; in experiment [2] (carboplatin co-treatment 0 µM), 0.732; in experiment [2] (carboplatin co-treatment 5 µM) it was 0.0179.

Regarding `CN1CCC(=C2c3ccccc3C=Cc3ccccc32)CC1` [Cyproheptadine HCl (Periactin)], the log2 surviving fraction is -4.11 in experiment [1] (carboplatin co-treatment 0 µM), -1.17 in experiment [1] (carboplatin co-treatment 5 µM), -2.12 in experiment [2] (carboplatin co-treatment 0 µM) and -2.1 in experiment [2] (carboplatin co-treatment 5 µM).

For `O=C(Nc1ccccc1)c1ccccc1O` [Salicylanilide], the log2 surviving fraction in experiment [1] (carboplatin co-treatment 0 µM) was 0.228; in experiment [1] (carboplatin co-treatment 5 µM), -0.197; in experiment [2] (carboplatin co-treatment 0 µM), -0.315; in experiment [2] (carboplatin co-treatment 5 µM), -0.932.

On to `CCOC(=O)[C@H](CCc1ccccc1)N[C@H]1CCCN2CCC[C@@H](C(=O)O)N2C1=O` [Cilazapril monohydrate (Inhibace)], for which the log2 surviving fraction in experiment [1] (carboplatin co-treatment 0 µM) came out at 0.674; in experiment [1] (carboplatin co-treatment 5 µM), 0.365; in experiment [2] (carboplatin co-treatment 0 µM), 0.644; in experiment [2] (carboplatin co-treatment 5 µM), 0.305.

`CNNCc1ccc(C(=O)NC(C)C)cc1` [Procarbazine HCl (Matulane)]: the log2 surviving fraction in experiment [1] (carboplatin co-treatment 0 µM) is -0.063; in experiment [1] (carboplatin co-treatment 5 µM), 0.188; in experiment [2] (carboplatin co-treatment 0 µM), -1.03; in experiment [2] (carboplatin co-treatment 5 µM), -0.232.

For `COC(=O)C1=C(C)NC(C)=C(C(=O)OCCN2CCN(C(c3ccccc3)c3ccccc3)CC2)C1c1cccc([N+](=O)[O-])c1` (stereo not given) [Manidipine (Manyper)], the log2 surviving fraction is -6.01 in experiment [1] (carboplatin co-treatment 0 µM), -5.01 in experiment [1] (carboplatin co-treatment 5 µM), -5.72 in experiment [2] (carboplatin co-treatment 0 µM) and -4.95 in experiment [2] (carboplatin co-treatment 5 µM).

For `CN(CCOc1ccc(CC2SC(=O)NC2=O)cc1)c1ccccn1` (stereo not given) [Rosiglitazone (Avandia)], the log2 surviving fraction was 1.18 in experiment [1] (carboplatin co-treatment 0 µM), 0.73 in experiment [1] (carboplatin co-treatment 5 µM), -0.215 in experiment [2] (carboplatin co-treatment 0 µM) and 1 in experiment [2] (carboplatin co-treatment 5 µM).

Regarding `N#CC(c1ccc(Cl)cc1)c1c(Cl)cc(-n2ncc(=O)[nH]c2=O)cc1Cl` (stereo not given) [Diclazuril], the log2 surviving fraction in experiment [1] (carboplatin co-treatment 0 µM) is -0.394; in experiment [1] (carboplatin co-treatment 5 µM), -0.156; in experiment [2] (carboplatin co-treatment 0 µM) it was -1.6; in experiment [2] (carboplatin co-treatment 5 µM) it was -1.9.

Consider `CCOC(=O)c1c(C)n(C)c2ccc(O)cc12` [Mecarbinate], for which the log2 surviving fraction in experiment [1] (carboplatin co-treatment 0 µM) was 0.363; in experiment [1] (carboplatin co-treatment 5 µM), 1.59; in experiment [2] (carboplatin co-treatment 0 µM) it was 1.21; in experiment [2] (carboplatin co-treatment 5 µM) it was 1.35.
